Measured values published in doi:10.1101/522284 (bioRxiv, 2019).

Target: the molecule itself
Assay: density gradient centrifugation

B1: Tau-RD* (FLAG-tagged human Tau-RD, […], ΔK280) (domain or fragment)
chain: not shown
Q: Does B1 bind?
A: binds
